Article PMC4259493 (Cell, 2014)

Biological target: the molecule itself
Assay: crystal structure

B1: α-actinin-2 Δ1-18, E310A/K311A (crystallisation construct, lysine methylated) (natural protein)
chain: not shown
modifications: lysine residues reductively methylated
- binding result: binds
